Converted amounts (≈) assume the structure as drawn. Part of at least one peptide drawing is inferred or uncertain, most often the ends. Square brackets hold non-standard residues; d marks the D form. Ends that are not written are not given here. Peptide text beside a SMILES is read from it. dPhe(4-NH2) = Nc1ccc(C[C@@H](N)C(=O)O)cc1; Phe(4-NH2) = Nc1ccc(C[C@H](N)C(=O)O)cc1
Tests used:
[1] = system: Spontaneous Ovarian Teratoma Cells; assay: Survival of mice injected with Spontaneous Ovarian Teratoma cells; format: in vivo; conditions: intraperitoneal, days 2 and 5, dose 22 mg/kg/day
E. coli ATCC 25922 = assay: Antibacterial MIC assay, microtiter broth dilution (NCCLS M7-T2); format: cell-based; conditions: Mueller Hinton broth, 16-20 hours at 37° C.
Procedure: (§1) The procedure for the following antibacterial assay is based upon the guidelines of the National Committee for Clinical Laboratory Standards, Document M7-T2, Volume 8, No. 8, 1988.
(§2) were prepared at a concentration of 512 μpg/ml in sterile deionized distilled water and stored at -70° C.
(§3) 1.5×10^5 CFUs/ml of either S. aureus ATCC 25923, E. coli ATCC 25922, P. aeruginosa ATCC 27853, or C. albicans were added to the wells in full strength Mueller Hinton broth (BBL 11443) from a mid-log culture. The inoculums are standarized spectrophotometrically at 600 nm and is verified by colony counts. The plates are incubated for 16-20hours at 37° C., and the minimal inhibitory concentration (MIC) for each peptide is determined. Minimal inhibitory concentration is defined as the lowest concentration of peptide which produces a clear well in the microtiter plate.

S. aureus ATCC 25923 = assay: as above; format: cell-based; conditions: Mueller Hinton broth, 16-20 hours at 37° C.
Procedure: as §1, §2, §3

P. aeruginosa ATCC 27853 = assay: as above; format: cell-based; conditions: Mueller Hinton broth, 16-20 hours at 37° C.
Procedure: as §1, §2, §3

C. albicans = assay: MIC assay, microtiter broth dilution (NCCLS M7-T2); format: cell-based; conditions: Mueller Hinton broth, 16-20 hours at 37° C.
Procedure: as §1, §2, §3

[2] = system: P. gingivalis strain A7AI-28; assay: Anaerobic MIC assay (NCCLS M11-T2), P. gingivalis; format: cell-based; conditions: 37° C., 24 to 48 hours
[3] = system: P. gingivalis strain FAY-19M-1; assay: Anaerobic MIC assay (NCCLS M11-T2), P. gingivalis; format: cell-based; conditions: 37° C., 24 to 48 hours
P. gingivalis strain 381 = assay: Anaerobic MIC assay (NCCLS M11-T2), P. gingivalis; format: cell-based; conditions: 37° C., 24 to 48 hours
[4] = system: P. gingivalis strain W-50; assay: Anaerobic MIC assay (NCCLS M11-T2), P. gingivalis; format: cell-based; conditions: 37° C., 24 to 48 hours
C. difficile = assay: Anaerobic MIC assay in prereduced BHI broth; format: cell-based; conditions: 24 to 36 hours
L. fermentum = assay: Anaerobic MIC assay in prereduced BHI broth; format: cell-based; conditions: 24 to 36 hours
B. fragilis = assay: Anaerobic MIC assay in prereduced BHI broth; format: cell-based; conditions: 24 to 36 hours
[5] = system: Spontaneous Ovarian Teratoma Cells; assay: Ascites accumulation (body weight) in mice injected with Spontaneous Ovarian Teratoma cells; format: in vivo; conditions: 10 mg/kg, not treated until day five after SOT cells, vs saline control and (SEQ ID NO:7)-NH2

Row | Molecule | ILS (increase in life span vis-a-vis the control group) [1] | MIC E. coli (E. coli ATCC 25922) | MIC S. aureus (S. aureus ATCC 25923) | MIC P. aeruginosa (P. aeruginosa ATCC 27853) | MIC C. albicans (C. albicans) | MIC P. gingivalis strain A7AI-28 [2] | MIC P. gingivalis strain FAY-19M-1 [3] | MIC P. gingivalis strain 381 (P. gingivalis strain 381) | MIC P. gingivalis strain W-50 [4] | MIC C. difficile (C. difficile) | MIC L. fermentum (L. fermentum) | MIC B fragilis (B. fragilis) | accumulation of ascites fluid (body weight data, FIG. 1) [5]
1 | GIGKFLKKAKKFAKAFVKIINN-NH2 [(SEQ ID NO:7)-NH2, reference compound] | 81% | 2 µg/mL | 4 µg/mL | 4 µg/mL | 64 µg/mL | 2 µg/mL | 32 µg/mL | 256 µg/mL | 8 µg/mL |  |  |  | 
2 | CC[C@@H](C)[C@@H](NC(=O)[C@H](N)CCCCN)C(=O)N[C@H](C)C(=O)NCC(=O)N[C@H](Cc1ccc(N)cc1)C(=O)N[C@@H](C(=O)N[C@H](C)C(=O)N[C@H](CCCCN)C(=O)N[C@@H](C(=O)N[C@H](C)C(=O)NCC(=O)N[C@H](Cc1ccc(N)cc1)C(=O)N[C@@H](C(=O)N[C@H](C)C(=O)N[C@H](CCCCN)C(=O)N[C@@H](C(=O)N[C@H](C)C(=O)NCC(=O)N[C@H](Cc1ccc(N)cc1)C(=O)N[C@@H](C(=O)N[C@H](C)C(N)=O)[C@H](C)CC)[C@H](C)CC)[C@H](C)CC)[C@H](C)CC)[C@H](C)CC [D-(SEQ ID NO:8)-NH2] (H-[dK][dI][dA]G[dPhe(4-NH2)][dI][dA][dK][dI][dA]G[dPhe(4-NH2)][dI][dA][dK][dI][dA]G[dPhe(4-NH2)][dI][dA]-NH2) |  |  | 16 µg/mL (≈ 7.39 µM) |  |  |  |  |  |  | 1 µg/mL (≈ 0.462 µM) | 1 µg/mL (≈ 0.462 µM) | 1 µg/mL (≈ 0.462 µM) | 
3 | CC[C@H](C)[C@H](NC(=O)[C@H](Cc1ccc(N)cc1)NC(=O)CNC(=O)[C@H](C)NC(=O)[C@@H](NC(=O)[C@H](CCCCN)NC(=O)[C@H](C)NC(=O)[C@@H](NC(=O)[C@H](Cc1ccc(N)cc1)NC(=O)CNC(=O)[C@H](C)NC(=O)[C@@H](NC(=O)[C@H](CCCCN)NC(=O)[C@H](C)NC(=O)[C@@H](NC(=O)[C@H](Cc1ccc(N)cc1)NC(=O)CNC(=O)[C@H](C)NC(=O)[C@@H](NC(=O)[C@@H](N)CCCCN)[C@@H](C)CC)[C@@H](C)CC)[C@@H](C)CC)[C@@H](C)CC)[C@@H](C)CC)C(=O)N[C@@H](C)C(N)=O [(SEQ ID NO:8)-NH2, reference compound] (H-KIAG[Phe(4-NH2)]IAKIAG[Phe(4-NH2)]IAKIAG[Phe(4-NH2)]IA-NH2) |  |  | 32 µg/mL (≈ 14.8 µM) |  |  |  |  |  |  | 1 µg/mL (≈ 0.462 µM) | 8 µg/mL (≈ 3.7 µM) | 2 µg/mL (≈ 0.924 µM) | 
4 | CC[C@@H](C)[C@@H](NC(=O)CN)C(=O)NCC(=O)N[C@H](CCCCN)C(=O)N[C@H](Cc1ccccc1)C(=O)N[C@H](CC(C)C)C(=O)N[C@H](CCCCN)C(=O)N[C@H](CCCCN)C(=O)N[C@H](C)C(=O)N[C@H](CCCCN)C(=O)N[C@H](CCCCN)C(=O)N[C@H](Cc1ccccc1)C(=O)N[C@H](C)C(=O)N[C@H](CCCCN)C(=O)N[C@H](C)C(=O)N[C@H](Cc1ccccc1)C(=O)N[C@@H](C(=O)N[C@H](CCCCN)C(=O)N[C@@H](C(=O)N[C@@H](C(=O)N[C@H](CC(N)=O)C(=O)N[C@H](CC(N)=O)C(N)=O)[C@H](C)CC)[C@H](C)CC)C(C)C [D-(SEQ ID NO:7)-NH2] (H-G[dI]G[dK][dF][dL][dK][dK][dA][dK][dK][dF][dA][dK][dA][dF][dV][dK][dI][dI][dN][dN]-NH2) | 144% | 2 µg/mL (≈ 0.812 µM) | 4 µg/mL (≈ 1.62 µM) | 4 µg/mL (≈ 1.62 µM) | 16 µg/mL (≈ 6.5 µM) | 2 µg/mL (≈ 0.812 µM) | 8 µg/mL (≈ 3.25 µM) | 32 µg/mL (≈ 13 µM) | 2 µg/mL (≈ 0.812 µM) |  |  |  | delayed and was also significantly less than the control group
5 | CC[C@H](C)[C@H](NC(=O)CN)C(=O)NCC(=O)N[C@@H](CCCCN)C(=O)N[C@@H](Cc1ccccc1)C(=O)N[C@@H](CC(C)C)C(=O)N[C@@H](CCCCN)C(=O)N[C@@H](CO)C(=O)N[C@@H](C)C(=O)N[C@@H](CCCCN)C(=O)N[C@@H](CCCCN)C(=O)N[C@@H](Cc1ccccc1)C(=O)NCC(=O)N[C@@H](CCCCN)C(=O)N[C@@H](C)C(=O)N[C@@H](Cc1ccccc1)C(=O)N[C@H](C(=O)N[C@@H](CCCCN)C(=O)N[C@H](C(=O)N[C@@H](CC(C)C)C(=O)N[C@@H](CC(N)=O)C(=O)N[C@@H](CO)C(N)=O)[C@@H](C)CC)C(C)C [(SEQ ID NO:6)-NH2, reference compound] |  | 2 µg/mL (≈ 0.84 µM) | 4 µg/mL (≈ 1.68 µM) | 8 µg/mL (≈ 3.36 µM) | 32 µg/mL (≈ 13.4 µM) | 64 µg/mL (≈ 26.9 µM) | 128 µg/mL (≈ 53.8 µM) | 64 µg/mL (≈ 26.9 µM) | 256 µg/mL (≈ 108 µM) |  |  |  | 
6 | CC[C@@H](C)[C@@H](NC(=O)CN)C(=O)NCC(=O)N[C@H](CCCCN)C(=O)N[C@H](Cc1ccccc1)C(=O)N[C@H](CC(C)C)C(=O)N[C@H](CCCCN)C(=O)N[C@H](CO)C(=O)N[C@H](C)C(=O)N[C@H](CCCCN)C(=O)N[C@H](CCCCN)C(=O)N[C@H](Cc1ccccc1)C(=O)NCC(=O)N[C@H](CCCCN)C(=O)N[C@H](C)C(=O)N[C@H](Cc1ccccc1)C(=O)N[C@@H](C(=O)N[C@H](CCCCN)C(=O)N[C@@H](C(=O)N[C@H](CC(C)C)C(=O)N[C@H](CC(N)=O)C(=O)N[C@H](CO)C(N)=O)[C@H](C)CC)C(C)C [D-(SEQ ID NO:6)-NH2] |  | 2 µg/mL (≈ 0.84 µM) | 4 µg/mL (≈ 1.68 µM) | 8 µg/mL (≈ 3.36 µM) | 16 µg/mL (≈ 6.72 µM) | 8 µg/mL (≈ 3.36 µM) | 8 µg/mL (≈ 3.36 µM) | 2 µg/mL (≈ 0.84 µM) | 8 µg/mL (≈ 3.36 µM) |  |  |  | 
